# Laboratory results published in the supplement of paper PMC3334620.
# The full ranking holds about 33,000 sequences; the median of “E-score (-0.5 to 0.5)” is about -0.043, and the highest 2% start at about 0.37. This is one part of the list.
# Molecular target: T1, Upc2 (UniProt Q12151)
# T1 sequence: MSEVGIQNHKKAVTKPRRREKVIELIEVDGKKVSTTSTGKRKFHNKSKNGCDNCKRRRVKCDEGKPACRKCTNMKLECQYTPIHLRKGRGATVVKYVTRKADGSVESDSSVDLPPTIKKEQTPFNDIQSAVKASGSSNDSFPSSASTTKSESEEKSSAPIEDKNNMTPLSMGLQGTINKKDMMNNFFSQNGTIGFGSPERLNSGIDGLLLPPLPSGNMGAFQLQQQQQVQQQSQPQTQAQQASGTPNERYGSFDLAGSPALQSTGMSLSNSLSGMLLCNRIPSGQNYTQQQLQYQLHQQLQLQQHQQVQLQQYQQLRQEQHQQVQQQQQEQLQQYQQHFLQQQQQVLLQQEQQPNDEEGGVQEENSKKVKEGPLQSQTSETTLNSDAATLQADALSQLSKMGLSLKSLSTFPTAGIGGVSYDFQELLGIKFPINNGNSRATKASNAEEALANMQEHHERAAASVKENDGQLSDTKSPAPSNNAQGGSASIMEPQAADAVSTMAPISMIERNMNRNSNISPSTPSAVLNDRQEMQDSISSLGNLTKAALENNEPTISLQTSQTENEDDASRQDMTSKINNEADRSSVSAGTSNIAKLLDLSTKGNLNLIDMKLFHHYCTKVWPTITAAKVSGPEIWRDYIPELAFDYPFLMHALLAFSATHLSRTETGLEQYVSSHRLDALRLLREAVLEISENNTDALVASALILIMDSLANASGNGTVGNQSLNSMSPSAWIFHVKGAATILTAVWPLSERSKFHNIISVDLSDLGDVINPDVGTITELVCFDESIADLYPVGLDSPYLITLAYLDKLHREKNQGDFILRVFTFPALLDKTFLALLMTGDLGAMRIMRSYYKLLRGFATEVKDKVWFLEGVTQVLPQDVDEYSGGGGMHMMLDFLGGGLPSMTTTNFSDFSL
# Assay: PBM E-score (8-mer binding enrichment) (E-score (-0.5 to 0.5)); higher = stronger / more preferred TF binding; most listed sequences are background and not binding sites
# Conditions: protein concentration: 200 nM; construct: GST-full length
# How it was run: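 Universal all-10-mer Agilent arrays, double-stranded by primer extension on fresh or once-stripped slides, were probed with about 100-200 nM GST-tagged yeast transcription factors made by PURExpress. Fluorescent anti-GST detected bound protein, and masliner normalised the scans. E-scores from the Universal PBM Analysis Suite were given to each ungapped eight-base word pooled with its reverse complement.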
row,Sequence,PBM E-score
1,CAGGTGGA,-0.255
2,TGTAACAA,-0.0291
3,ATTTGCTG,0.0559
4,TCGCCAAA,0.13
5,CCTCATTA,-0.0435
6,AATATCAC,0.00067
7,AAGTCAAC,0.03
8,CAGCGACC,-0.185
9,AGTTCTCG,0.134
10,AAAGGCAT,-0.1
11,AGCTGAGC,-0.0883
12,CTGCGATC,-0.0814
13,GGAGGCGA,-0.253
14,AATCCTTG,-0.193
15,GAGCCCCC,-0.111
16,CCTTGCTA,-0.149
17,CAAGCGGA,-0.228
18,ACGGCTCT,0.0596
19,ATCCCCGA,-0.23
20,CAATAAGA,-0.0979
21,ATACTTCA,-0.16
22,ATCTTAAA,0.113
23,ACCCGTGC,-0.0333
24,CCTGCAGG,-0.443
25,CAAGATTG,-0.144

row,Sequence,PBM E-score
1,CATAGTCA,-0.0964
2,AGAAGAGG,-0.137
3,ATAACTAC,-0.0415
4,CACCCCTC,-0.113
5,CGAGTCTC,-0.00061
6,CGACCTAA,0.257
7,GTTTATAA,0.303
8,CTTTATTC,-0.0399
9,CCCTGGCC,-0.242
10,GCCACCGC,-0.134
11,ATCGGTTA,0.333
12,GAAGAAAA,-0.137
13,AGAAACCA,-0.109
14,GGGGAAAA,-0.0167
15,ATCCTAGC,-0.102
16,GTTCTACA,-0.0186
17,CGGCTGCA,0.0607
18,CAGAACGA,0.399
19,CATAGGAC,-0.166
20,AGATCGCC,0.0712
21,GCTACGTA,0.301
22,ACTTGCAT,0.0418
23,ATTGCAGC,-0.0672
24,ACAGCGGG,-0.172
25,CCCATACA,-0.22

row,Sequence,PBM E-score
1,ACCTAAAC,0.324
2,ATGCCTGG,-0.189
3,CACTATGG,-0.00111
4,CTTTACGC,0.332
5,CAATCCAG,-0.342
6,AGCGTCAT,0.0529
7,CAAAGCGG,-0.19
8,AGAGTGTG,0.0657
9,ACAGTTAG,-0.167
10,ACACATAG,-0.244
11,GACTCGTA,0.436
12,GAGCCTAA,-0.0807
13,GAAGGCGC,-0.132
14,ATAATTCA,0.03
15,CGTTAACG,0.422
16,CAAGAACC,0.0717
17,TGCCGTAA,0.31
18,TCTGACAA,-0.11
19,CCGTTCCA,0.283
20,CGCAACTA,0.00729
21,AGCTATTA,-0.058
22,ATCGAGAT,-0.0275
23,GCACTCCC,-0.207
24,CGCCTTGA,-0.133
25,TCGGTCAA,0.211

row,Sequence,PBM E-score
1,CGTCGCTA,0.249
2,AAAGACCG,-0.126
3,GAAACTGA,-0.152
4,CCGACCTA,-0.0158
5,AATTTAGC,0.0533
6,CACTACAA,0.152
7,ACGCGACG,0.265
8,AAAGTTCT,-0.0524
9,ACGGCGAT,0.316
10,ACATAAGT,-0.141
11,GATTAAGC,0.012
12,AAACTTCA,0.156
13,CTCCCCGA,-0.0281
14,CAAATCTG,-0.272
15,CAGTGTAC,0.184
16,TAACAATA,0.103
17,AATCAATG,0.0849
18,GGTGCTAA,-0.00472
19,GTGTGAGA,-0.0873
20,AATCTACG,0.0794
21,CACAACTA,0.0858
22,ATGGTTGA,-0.284
23,ACGGCCAC,0.0967
24,CGCGTGGC,-0.0684
25,AATTCAGG,0.00127

row,Sequence,PBM E-score
1,CTCACAAA,-0.182
2,GAGAGAAC,-0.133
3,ACTGGAAT,-0.283
4,CGCAGGGC,0.0356
5,AATGTTAG,-0.0657
6,GCTCCTGA,-0.101
7,CACAAGCG,0.0708
8,CGGTTGCC,-0.0446
9,CGGAATAG,-0.0866
10,TATCTTCA,0.0238
11,CGTAACGA,0.374
12,CGTTCGCA,0.274
13,CCGGGTAG,-0.0707
14,ACTGCGGC,0.0227
15,CGCACCCC,-0.136
16,TTAGCCAA,-0.155
17,TAACAGAA,-0.0236
18,TAAGTGTA,0.201
19,GCTGGGAA,-0.00216
20,ATCTCTCA,-0.156
21,TAAGGATA,-0.111
22,ATTATTCA,-0.112
23,CCTTTATC,-0.132
24,CTCCCAGC,-0.242
25,AGACTACG,-0.0435

row,Sequence,PBM E-score
1,GAGGCTCA,-0.195
2,GCATACAC,0.0673
3,AAATATAG,0.0319
4,CATTTTGA,-0.118
5,CGACCCCG,-0.14
6,CGCTTAAA,0.28
7,AGCGACAC,0.166
8,AACTGTCG,0.125
9,AATCCTCC,-0.143
10,ACGGCTGA,0.139
11,CCTTCTTC,-0.159
12,CGGTGATC,-0.152
13,TGAACGCA,0.189
14,AATCTTCG,0.162
15,AGCCGACA,-0.152
16,CTATCTCC,-0.197
17,AAGCGATG,0.173
18,GGAGATTA,-0.182
19,GAAAACAA,-0.00381
20,TGGGCCAA,-0.162
21,CAGGTGGG,-0.138
22,CAAGATAC,0.0716
23,ATAAGCAT,-0.00636
24,ATGTATAA,0.0845
25,ATGGAAGA,-0.3

row,Sequence,PBM E-score
1,AATCCCAC,-0.122
2,GCTCCAGA,-0.127
3,CCCCAGCC,-0.0305
4,CGTCGCCC,-0.104
5,ATGTGGGC,-0.107
6,CATTACGC,0.023
7,ACGGACGG,0.105
8,CGATAGGA,0.00018
9,CACAGCTA,-0.106
10,GCCATGCC,-0.216
11,GCATTGGA,-0.214
12,GAAGGGTA,-0.103
13,ATACTAAT,0.0186
14,GTGGGTTA,-0.0799
15,CATAATAC,0.141
16,CAGATATG,-0.0342
17,ATTCTAGC,-0.0542
18,TCAAAGAA,0.0392
19,TAAAAGCA,0.113
20,AGAATAAT,-0.0388
21,TCTTGGAA,-0.143
22,AGGCCACC,-0.0599
